Test results taken from PubChem BioAssay AID504832 (National Center for Advancing Translational Sciences (NCATS), 2011).
The whole screen tested about 310,000 compounds, of which about 18,000 (5.8%) were called active. The shares of active, inactive and inconclusive entries below differ from those in the screen. The call rests on the fitted dose curve; in most records, active means well fitted inhibition curve with a large enough effect; inconclusive means small, poorly fitted or top-dose-only effect, or another doubt; inactive means no such curve, though single readings can be large or run the other way. Potencies of inconclusive entries are left out as doubtful fits.
On the % scale 0 is the no-effect control and ±100 the full control effect; potency means the concentration at half of the fitted maximal effect; tags describe the fitted curve by direction and shape.

Assay: Primary qHTS for delayed death inhibitors of the malarial parasite plastid, 48 hour incubation
Details: P. falciparum luciferase growth in erythrocytes; series mostly up to 28.7 µM; activity change, negative = inhibition: at the top concentration
How it was run: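 Firefly luciferase activity from engineered P. falciparum reports growth; inhibitors lower the luminescent signal. Cultures contained 2% hematocrit erythrocytes at 0.1% final parasitemia.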
With Fc1ccccc1/C=N/n1cc(-c2ccccc2)[nH]c1=S the Potency was inconclusive [inhibitor, single point].
With O=C(Nc1ccccc1Oc1cccnc1)C1CCCN(C/C=C/c2ccc(F)cc2)C1 (stereo not given) the Potency was inconclusive [inhibitor, partial curve].
With Cc1cc(C)c(-n2nnnc2SCC(=O)c2cc3ccccc3o2)c(C)c1 the Potency was inconclusive [inhibitor, partial curve].
For Cc1cc(NC(=O)COC(=O)CCNS(=O)(=O)c2cccc(C(F)(F)F)c2)no1, the “activity change, negative = inhibition” value was inactive: 43.7%.
For CC(C)OC(=O)c1cccnc1N1CCN(c2cccc(Cl)c2)CC1, the Potency was inconclusive [inhibitor, single point].
For COc1ccc(C(=O)OC(COc2ccccc2)Cn2ccnc2)cc1 (stereo not given), the Potency was inconclusive [inhibitor, single point].
With Cc1cc(C)cc(N(CCC#N)C(=O)COC(=O)C2=COCCO2)c1 the Potency was inconclusive [inhibitor, single point].
For O=c1c2c3c(sc2ncn1-n1cccc1)CCCCC3, the Potency was inconclusive [inhibitor, single point].
In the case of CN1CCN(C2=C(NS(=O)(=O)c3ccccc3)C(=O)c3ccccc3C2=O)CC1, the Potency is reported as active: 4.15 µM.
In the case of CNC(=O)N1c2ccccc2CCc2ccccc21, the Potency is reported as inconclusive [inhibitor, partial curve, poor fit].
With FC(F)(F)C1=Nc2cccc3cccc(c23)N1 the “activity change, negative = inhibition” value was inactive: 58.5%.
With O=C(NCC(=O)N(CCc1ccccc1)C(C(=O)NC1CCCCC1)c1ccncc1)c1ccco1 (stereo not given) the Potency was inconclusive [inhibitor, partial curve].
For O=S(=O)([N-]c1nc2ccccc2nc1-n1cc[n+](Cc2ccccc2)c1)c1ccccc1, the “activity change, negative = inhibition” value was inactive: -24.6%.
For O=S(=O)(Nc1cc2nc3ccccc3nc2n1Cc1ccccc1)c1ccc(Cl)cc1, the Potency was active: 1.31 µM.
In the case of CCCCCCCNC(=O)C1(CC2CC(c3ccc(Cl)cc3)=NO2)CCN(C(=O)c2cc(OCC)c(OCC)c(OCC)c2)CC1 (stereo not given), the Potency is reported as active: 1.17 µM.
In the case of Nc1cc([N+](=O)[O-])ccc1Nc1ccccc1, the Potency is reported as inconclusive [inhibitor, single point].
For Cc1ccccc1N/C(SCc1ccc(Cl)cc1)=C(/C#N)C(N)=O, the Potency was inconclusive [inhibitor, full curve].
With COc1ccc(OCC(=O)N/N=C(\C)CC(=O)Nc2cccc([N+](=O)[O-])c2)cc1 the “activity change, negative = inhibition” value was inactive: -12.3%.
In the case of O=C(CCn1c(=O)[nH]c2ccccc2c1=O)NCCCN1CCN(c2cccc(Cl)c2)CC1, the Potency is reported as inconclusive [inhibitor, single point].
For CCCNc1nc(-c2cc(-c3ccc(Cl)cc3)on2)cc(C(C)C)n1, the “activity change, negative = inhibition” value was inactive: 16.2%.
In the case of Cc1ccc(C(=O)/C=C/c2cc(C#N)n(C)c2C)cc1, the “activity change, negative = inhibition” value is reported as inactive: -21.9%.
For CC(=O)c1ccc(-c2ccccc2[C@H]2[C@H]3C=CC[C@@H](C)[C@@H]3C(=O)N2Cc2ccccc2)cc1, the Potency was inconclusive [inhibitor, single point].
With COc1cc(/C=C2\SC(=N)N(c3ccc4c(c3)OCO4)C2=O)cc(OC)c1O the Potency was inconclusive [inhibitor, partial curve, poor fit].
In the case of Cc1cccc(N(CC(=O)N2CCCC2)S(=O)(=O)c2ccccc2)c1C, the Potency is reported as inconclusive [inhibitor, single point].
For CCC1CN(C(=O)N2CCC(C(=O)NCc3cccc(F)c3)CC2)c2ccccc2O1 (stereo not given), the Potency was inconclusive [inhibitor, single point].
In the case of COc1ccc(N(CC(=O)NCCc2ccccc2)C(=O)CCC(=O)Nc2nccs2)c(OC)c1, the Potency is reported as inconclusive [inhibitor, partial curve, poor fit].
With O=C(Cc1ccccc1)Nc1ccc(C(=O)Nc2ccccc2C(=O)O)cc1 the “activity change, negative = inhibition” value was inactive: -11.1%.
With C=CCc1cc(Cl)ccc1OCCCn1ccnc1 the Potency was inconclusive [inhibitor, single point].
With COc1ccc(N=c2oc3cc(O)ccc3cc2C(=O)NCC2CCCO2)cc1 (stereo not given) the Potency was inconclusive [inhibitor, partial curve, poor fit].
In the case of COc1ccc(/C(C)=N\NS(=O)(=O)c2ccccc2)cc1OC, the “activity change, negative = inhibition” value is reported as inactive: -7.9%.
With O=C(Nc1ccc(F)cc1)c1ccc(-n2ccnc2)nc1 the Potency was inconclusive [inhibitor, partial curve, poor fit].
With O=C(CC(c1ccc(F)cc1)c1ccco1)N1CCCC1 (stereo not given) the Potency was inconclusive [inhibitor, single point].
With CCC(C)NC(=O)CSc1nnc(-c2ccoc2C)n1CC1CCCO1 (stereo not given) the “activity change, negative = inhibition” value was inactive: -3.75%.
With N#Cc1ccc(NC(=O)Nc2ccc(Cl)cc2)cc1 the Potency was inconclusive [inhibitor, full curve].
In the case of Cc1cc(C)cc(N(CC(=O)NCc2ccco2)C(=O)CCC(=O)Nc2ccccn2)c1, the Potency is reported as inconclusive [inhibitor, partial curve, poor fit].
In the case of CCOC(=O)C1CCN(C(=O)CN(c2cccc(C(F)(F)F)c2)S(C)(=O)=O)CC1, the “activity change, negative = inhibition” value is reported as inactive: 6.5%.
In the case of CCn1c(=S)[nH]c2sc3c(c2c1=O)CCCCC3, the Potency is reported as inconclusive [inhibitor, single point].
With O=C(N/N=C/c1cn(-c2ccccc2)nc1-c1cccnc1)c1ccc(F)cc1 the Potency was inconclusive [inhibitor, full curve, poor fit].
For O=C1c2ccccc2C(=O)N1CCc1nc2ccccc2c(=O)n1-c1ccccn1, the “activity change, negative = inhibition” value was inactive: 13.1%.
For Cc1nc(SCc2nc3ccccc3[nH]2)c2oc3ccccc3c2n1, the Potency was inconclusive [inhibitor, full curve].
In the case of CCCCNc1c2c3c(cccc3n(C)c1=O)C(=O)c1ccccc1-2, the Potency is reported as inconclusive [inhibitor, partial curve, poor fit].
With O=C(Cn1c(COc2ccc(Cl)cc2)nc2ccccc21)NCC(F)(F)F the Potency was inconclusive [inhibitor, partial curve, poor fit].
In the case of CC(C)CC(=O)Nc1ccnn1C1CCN(C(=O)c2ccc(F)cc2Cl)CC1, the “activity change, negative = inhibition” value is reported as inactive: 0%.
For CCOc1ccc(S(=O)(=O)Nc2ccc(C(=O)NCCCN3CCCC3=O)cc2)cc1, the “activity change, negative = inhibition” value was inactive: 9.13%.
In the case of COc1cccc(/C=N/NC(=O)CNC(=O)C(c2ccccc2)c2ccccc2)c1O, the Potency is reported as inconclusive [inhibitor, single point].
For CC(C)C[C@H](N)C(=O)N1CCC(C(=O)N[C@H](C(=O)NC(C)c2ccccc2)C(C)C)CC1 (stereo not given in full), the Potency was inconclusive [inhibitor, single point].
With C=C1CC[C@H](O)C/C1=C/C=C1\CCC[C@]2(C)[C@@H]([C@H](C)CCCC(C)(C)O)CC[C@@H]12 the Potency was inconclusive [inhibitor, single point].
In the case of O=C1NC2=C(C(=O)CCC2)C(c2cccc([N+](=O)[O-])c2)N1 (stereo not given), the “activity change, negative = inhibition” value is reported as inactive: -6.01%.
With COc1ccc(S(=O)(=O)N2CCCC2C(=O)n2nc(C)cc2C)cc1 (stereo not given) the “activity change, negative = inhibition” value was inactive: 22%.
In the case of Cc1cc(Nc2ccc(F)cc2)nc(N)n1, the Potency is reported as inconclusive [inhibitor, single point].
With c1ccc(CCn2nnnc2C(c2cccnc2)N2CCOCC2)cc1 (stereo not given) the “activity change, negative = inhibition” value was inactive: -13.6%.
For COc1ccc(S(=O)(=O)N(C)CC(=O)NCCN2CCOCC2)cc1C, the “activity change, negative = inhibition” value was inactive: 13.1%.
With Nc1nc2n(c1C(=O)c1ccccc1)CCC2 the “activity change, negative = inhibition” value was inactive: 13.8%.
With Clc1ccc(CN2C3=NCCN3c3ccccc32)cc1 the Potency was inconclusive [inhibitor, partial curve].
In the case of CC[C@H](C)[C@H](NC(N)=O)C(=O)Nc1ccc(S(=O)(=O)NC(C)C)cc1, the Potency is reported as inconclusive [inhibitor, partial curve, poor fit].
In the case of CC(C)(C)OC(=O)NCCCC[C@H](NC(=O)c1nc[nH]c1C(=O)N1CCc2ccccc2C1)C(=O)OC(C)(C)C, the Potency is reported as inconclusive [inhibitor, single point].
For CC(C)Cn1cnc2c1c(=O)n(CC(=O)NC(=O)NC(C)(C)C)c(=O)n2Cc1ccccc1, the Potency was active: 2.94 µM.
For Cc1nnc(-c2cccc(C(F)(F)F)c2)nc1N1CCOCC1, the Potency was inconclusive [inhibitor, partial curve, poor fit].
In the case of CCn1cc([N+](=O)[O-])nc1C, the “activity change, negative = inhibition” value is reported as inactive: -1.83%.
With Cc1cc(Br)ccc1NC(=O)C1C2CCC(O2)C1C(=O)O (stereo not given) the “activity change, negative = inhibition” value was inactive: 20.4%.
In the case of O=C(NCCCN1CCOCC1)C(=O)N/N=C/c1ccc2c(c1)OCO2, the “activity change, negative = inhibition” value is reported as inactive: 8.03%.
For CCN(c1ccc(OC)cc1)S(=O)(=O)c1nnc(NC(=O)c2ccco2)s1, the Potency was inconclusive [inhibitor, single point].
For CN(C)S(=O)(=O)N1CCN(CC(O)COc2ccc3cc(Br)ccc3c2)CC1 (stereo not given), the Potency was inconclusive [inhibitor, single point].
For Cc1cc(C(=O)OCC(=O)NC2CCS(=O)(=O)C2)c(C)n1-c1ccccc1 (stereo not given), the Potency was inconclusive [inhibitor, full curve, poor fit].
In the case of S=C(c1ccc(Cl)cc1)N1CCOCC1, the “activity change, negative = inhibition” value is reported as inactive: 1.6%.
In the case of CC(C)CCN1CCN(C2CCN(c3ccccc3)CC2)CC1CCO (stereo not given), the “activity change, negative = inhibition” value is reported as inactive: -0.808%.
For COc1ccc(NC(=O)Cc2ccc(C)cc2)cc1S(=O)(=O)N1CCCCC1, the Potency was inconclusive [inhibitor, single point].
For CCOC(=O)N1CCN(C(=O)c2ccc3c(c2)N(Cc2cccc(Cl)c2)C(=O)c2ccccc2S3=O)CC1 (stereo not given), the Potency was active: 7.38 µM.
With CC1CCN(CCCn2c(SCC(=O)NC3CCCC3)nc3ccccc3c2=O)CC1 the Potency was inconclusive [inhibitor, single point].
With Cc1ccc2nc(SC(C)C(=O)N3CC(C)OC(C)C3)[nH]c2c1 (stereo not given) the Potency was inconclusive [inhibitor, single point].
